# PMC4336329 (PLoS ONE, 2015)
# The campaign covered roughly 310,000 compounds. About 2,200 (0.71%) showed an effect of 50% or more. The effect is printed as a negative number. This is one part of the list.
# Target: human ether-à-go-go-related gene (hERG) potassium channel (human, UniProt Q12809)
# Experiment: primary screen, population patch clamp on CHO cells stably expressing hERG
# Chain of human ether-à-go-go-related gene (hERG) potassium channel (Q12809 whole entry, looked up): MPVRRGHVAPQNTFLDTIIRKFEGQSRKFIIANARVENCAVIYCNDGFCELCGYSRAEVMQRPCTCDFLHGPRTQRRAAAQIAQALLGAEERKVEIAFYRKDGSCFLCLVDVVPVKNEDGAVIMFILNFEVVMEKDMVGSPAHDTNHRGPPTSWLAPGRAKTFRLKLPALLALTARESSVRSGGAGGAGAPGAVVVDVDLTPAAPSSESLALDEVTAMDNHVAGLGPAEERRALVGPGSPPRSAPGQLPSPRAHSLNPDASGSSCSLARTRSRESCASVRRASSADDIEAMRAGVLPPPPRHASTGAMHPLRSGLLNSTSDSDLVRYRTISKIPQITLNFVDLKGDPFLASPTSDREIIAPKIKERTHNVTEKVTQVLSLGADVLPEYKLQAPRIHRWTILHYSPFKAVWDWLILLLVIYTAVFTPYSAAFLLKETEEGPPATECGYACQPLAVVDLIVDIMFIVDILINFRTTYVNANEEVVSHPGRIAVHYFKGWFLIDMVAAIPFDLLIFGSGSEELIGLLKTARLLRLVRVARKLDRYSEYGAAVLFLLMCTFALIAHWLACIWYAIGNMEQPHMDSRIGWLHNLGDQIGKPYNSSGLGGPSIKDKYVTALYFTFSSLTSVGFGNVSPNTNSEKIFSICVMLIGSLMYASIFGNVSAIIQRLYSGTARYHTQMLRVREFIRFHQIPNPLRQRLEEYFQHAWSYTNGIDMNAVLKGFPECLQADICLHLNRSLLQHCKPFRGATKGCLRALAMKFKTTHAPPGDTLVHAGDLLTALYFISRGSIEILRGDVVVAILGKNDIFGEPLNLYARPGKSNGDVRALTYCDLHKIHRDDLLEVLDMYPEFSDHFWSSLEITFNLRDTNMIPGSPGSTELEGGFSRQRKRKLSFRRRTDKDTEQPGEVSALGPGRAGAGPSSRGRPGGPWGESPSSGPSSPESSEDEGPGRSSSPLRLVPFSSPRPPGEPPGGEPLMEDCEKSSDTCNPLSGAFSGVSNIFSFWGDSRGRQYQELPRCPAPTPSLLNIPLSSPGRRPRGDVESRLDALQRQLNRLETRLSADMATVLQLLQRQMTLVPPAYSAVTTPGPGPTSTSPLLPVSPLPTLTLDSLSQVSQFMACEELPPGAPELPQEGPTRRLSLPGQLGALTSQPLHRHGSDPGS
row,SMILES,"hERG current change (%, negative = inhibition) at 1uM"
1,COC(=O)Cc1cc(C)cc2c(=O)cc(-c3ccoc3)oc12,8.1%
2,COc1ccc(C2=NOC(Cn3nc(C(=O)NCc4cccs4)cc3-c3ccccc3)C2)cc1 (stereo not drawn),2.66%
3,Nc1nc(Nc2ccccc2)nc2c1ncn2[C@@H]1O[C@H](CO)[C@@H](O)[C@H]1O,5.18%
4,COc1ccccc1NC(=O)Nc1nc(CC(=O)Nc2ccc(F)c(F)c2)cs1,1.71%
5,CN(C(=O)COc1cc(C(F)(F)F)nn1C)c1ccccc1,23.3%
6,O=C(Cc1ccc(S(=O)(=O)N2CCCC2)s1)N1CCOCC1,10.7%
7,COc1c(CC=C(C)C)cc(C2CC(=O)c3c(O)cc(O)cc3O2)c(CC=C(C)C)c1O (stereo not drawn),8.07%
8,CCOC(=O)N1CCN(C(=O)COc2ccccc2[N+](=O)[O-])CC1,13.4%
9,Cc1ccc(N2C(=O)CC(N(CCc3ccccc3)C(=S)Nc3ccc(N(C)C)cc3)C2=O)cc1 (stereo not drawn),10.3%
10,O=C(Nc1ccncc1)c1cccc2ccccc12,15%
11,CCOC(=O)c1c(NC(=O)C(=O)N/N=C/c2ccccc2O)sc2c1CCCCC2,12.2%
12,O=C(Nc1ccc2c(c1)OCCO2)c1cccc(Cl)c1,20%
13,Cc1cc(NC(=O)CSCC(=O)N(c2ccc(F)cc2)C(C(=O)NC2CCCCC2)c2ccc(O)c(O)c2)no1 (stereo not drawn),3.34%
14,COc1ccc2c(CC(=O)NC3CCCc4ccccc43)coc2c1 (stereo not drawn),15.1%
15,COc1cc(CCC(=O)NCc2ccc(Cl)cc2)cc(OC)c1OC,8.77%
16,CCCCC(=O)N1CC2(C)CN(C(=O)CCCC)CC(C)(C1)C2=O,-13.6%
17,O=C(COC(=O)c1cc(Cl)ccc1O)Nc1ccc2c(c1)OCCO2,11%
18,O=C(N/N=C/c1ccoc1)c1ccccc1F,13.3%
19,NC(=O)CC1SC(N)=NC1=O (stereo not drawn),3.76%
20,Cc1ccc(/C=N/NC(=O)c2ccncc2)s1,18.3%
21,Cc1nn(Cc2ccc(Cl)cc2)c(C)c1NC(=O)c1noc2c1CCc1ccccc1-2,5.11%
22,COc1cc(C(=O)Nc2sc3c(c2C(=O)O)CCC(C)C3)cc(OC)c1OC (stereo not drawn),12.9%
23,Cc1ccc(-c2cc(N)nc(-c3ccccc3)c2)cc1,12.7%

row,SMILES,"hERG current change (%, negative = inhibition) at 1uM"
1,CC(C)CN1C(=O)C(=O)N(CC(=O)N(C)CC(=O)Nc2ccc(Cl)c(C(F)(F)F)c2)C1=O,-3.13%
2,CCOC(=O)C1(CCc2ccccc2)CCN(Cc2ccn[nH]2)CC1,-43.8%
3,CC1CCN(C(=O)c2cc3c(=O)n4ccccc4nc3s2)CC1,8.96%
4,CC(C)Cn1cc(C(=O)N2CCOCC2)c2c3ccccc3n(C)c2c1=O,-17.7%
5,O=C1/C(=C\c2ccc([N+](=O)[O-])cc2)N2CCC1CC2,0.363%
6,CCCC(=O)Nc1nnc(S(=O)(=O)N2CCCC2)s1,16.4%
7,Cc1ccc(CN2C(=O)CSC2c2ccc(F)cc2)cc1 (stereo not drawn),12.2%
8,CCOC(=O)C1CCN(Cc2ccc(F)cc2F)CC1,18.9%
9,Cc1ccc(CNC(=O)C(=O)c2cn(CC(=O)N3CCCC3)c3ccccc23)cc1,12.5%
10,O=c1o[nH]c(-c2ccccc2)c1C1=NCCCCC1,6.62%
11,CCN(CC)S(=O)(=O)c1ccc(NC(=O)c2ccccc2N(C)S(C)(=O)=O)cc1,-0.512%
12,O=C(CCn1c2c(c3ccccc31)CCCC2)NNC(=O)c1cccc([N+](=O)[O-])c1,12.5%
13,COc1ccc(NS(=O)(=O)c2cccc(C(=O)NNC(=O)CNC(=O)c3ccco3)c2)cc1,15.6%
14,COc1ccc(-c2ccc(/C=C(\NC(=O)c3ccccc3)C(=O)N3CCOCC3)o2)cc1,-0.841%
15,CCc1ccc(/C(C)=N/NC(=O)c2c[nH]c3ccccc23)s1,16.6%
16,CC1=NN(c2nc(-c3ccc(C)cc3)cs2)C(=O)C1N=Nc1ccccc1O (stereo not drawn),9.36%
17,Cn1cnc2c(oc3ccccc32)c1=O,13.6%
18,CCCNC(=S)N1CCCC(c2nc3ccccc3[nH]2)C1 (stereo not drawn),13.6%
19,Fc1cccc(CCN2CCN=C2Nc2ccccc2)c1,-5.72%
20,CCOc1ccc(NC(=O)NCc2ccco2)cc1,15.4%
21,C=CCc1cc(OC)ccc1OCCOCCC(C(=O)OCC)C(=O)OCC,5.46%
22,Cc1ccc(N(C(=O)CNC(=O)c2ccco2)C(C(=O)NC2CCCC2)c2ccncc2)cc1F (stereo not drawn),-0.584%
